The source of these data is paper PMC4336329 (PLoS ONE, 2015).

About 14,000 (4.5%) of roughly 310,000 compounds showed an effect of 50% or more. The effect is printed as a negative number. Some of the results follow.
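Note: peak tail current of the secondary pulse compared with the same well before compound.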

The target in this assay is human ether-à-go-go-related gene (hERG) potassium channel (human, UniProt Q12809). Nature of the assay: primary screen, population patch clamp on CHO cells stably expressing hERG.
Sequence of human ether-à-go-go-related gene (hERG) potassium channel (Q12809 whole entry, looked up): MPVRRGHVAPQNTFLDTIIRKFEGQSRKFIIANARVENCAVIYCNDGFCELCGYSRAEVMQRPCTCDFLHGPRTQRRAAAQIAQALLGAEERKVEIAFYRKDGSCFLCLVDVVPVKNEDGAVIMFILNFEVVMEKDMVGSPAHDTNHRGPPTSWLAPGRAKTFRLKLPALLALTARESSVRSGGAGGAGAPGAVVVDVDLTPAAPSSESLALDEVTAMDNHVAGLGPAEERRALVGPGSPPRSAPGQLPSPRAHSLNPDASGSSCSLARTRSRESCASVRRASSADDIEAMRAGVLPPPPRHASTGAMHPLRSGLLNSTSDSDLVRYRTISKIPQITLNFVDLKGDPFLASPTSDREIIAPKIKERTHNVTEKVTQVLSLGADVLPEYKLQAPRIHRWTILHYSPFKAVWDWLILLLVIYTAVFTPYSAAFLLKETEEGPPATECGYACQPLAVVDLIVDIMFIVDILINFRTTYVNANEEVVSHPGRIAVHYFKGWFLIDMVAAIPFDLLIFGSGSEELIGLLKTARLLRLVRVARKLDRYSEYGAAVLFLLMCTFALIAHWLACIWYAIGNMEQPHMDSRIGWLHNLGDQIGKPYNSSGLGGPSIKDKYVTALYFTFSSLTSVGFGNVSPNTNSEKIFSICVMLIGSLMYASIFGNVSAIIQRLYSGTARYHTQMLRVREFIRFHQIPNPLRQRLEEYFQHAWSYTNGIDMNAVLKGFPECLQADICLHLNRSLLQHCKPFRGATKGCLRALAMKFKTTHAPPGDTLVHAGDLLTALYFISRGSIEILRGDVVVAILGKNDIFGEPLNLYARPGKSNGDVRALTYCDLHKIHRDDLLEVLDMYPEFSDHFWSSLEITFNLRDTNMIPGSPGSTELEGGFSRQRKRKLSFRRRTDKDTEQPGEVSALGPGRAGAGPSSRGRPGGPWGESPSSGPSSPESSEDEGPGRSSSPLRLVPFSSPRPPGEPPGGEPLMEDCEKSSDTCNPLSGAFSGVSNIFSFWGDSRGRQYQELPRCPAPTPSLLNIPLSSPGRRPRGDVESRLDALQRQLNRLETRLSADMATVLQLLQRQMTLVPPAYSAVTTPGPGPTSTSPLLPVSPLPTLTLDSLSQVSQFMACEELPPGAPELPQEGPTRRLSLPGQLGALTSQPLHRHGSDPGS
As for `COC(=O)c1ccc(COc2ccc(/C=N/Nc3cccc(C(=O)O)c3)cc2)cc1`, the “hERG current change (%, negative = inhibition) at 10uM” value came out at 23%.

With `CC1(C)CC(=O)C(C2c3ccccc3S(=O)(=O)c3ccccc32)C(=O)C1`, the “hERG current change (%, negative = inhibition) at 10uM” value came out at 14.5%.

As for `Cc1cc(C)c(C(=O)COC(=O)c2nn(C)c(=O)c3ccccc23)cc1C`, the “hERG current change (%, negative = inhibition) at 10uM” value is listed as -30.4%.

For `CC1CCCCC1NC(=O)/C(C#N)=C/c1ccc2c(c1)OCCO2` (stereo not shown), the “hERG current change (%, negative = inhibition) at 10uM” value is -12.9%.

Consider `Cc1cccc(/C(N)=N/OC(=O)c2cccnc2)c1`, for which the “hERG current change (%, negative = inhibition) at 10uM” value is listed as 10.5%.

Take `O=C(CCCN1C(=O)c2cccc3cccc(c23)C1=O)N1CCc2ccccc2C1`: the “hERG current change (%, negative = inhibition) at 10uM” value was -26.2%.

In the case of `CCSCc1nnc(SCC(=O)Nc2cccc(SC)c2)n1C`, the “hERG current change (%, negative = inhibition) at 10uM” value is recorded as -13.5%.

Consider `CCCc1cc(C(=O)N2CCN(C(c3ccccc3)c3ccccc3)CC2)no1`, for which the “hERG current change (%, negative = inhibition) at 10uM” value is -20.6%.

`COc1cc(/C=N/Nc2cc(C)nc(N)n2)ccc1O`: the “hERG current change (%, negative = inhibition) at 10uM” value is given as 18.4%.

Take `O=C(COc1cccc2ccccc12)N/N=C/c1ccc(Sc2nc3ccccc3s2)o1`: the “hERG current change (%, negative = inhibition) at 10uM” value is recorded as 16.6%.

As for `CN(C(=O)c1cccc(S(=O)(=O)N2CCCC2)c1)C1CCCCC1`, the “hERG current change (%, negative = inhibition) at 10uM” value is listed as -1.08%.

On to `CCCCn1c(/N=C/c2ccc3c(c2)OCO3)nc2ccccc21`, for which the “hERG current change (%, negative = inhibition) at 10uM” value is recorded as -5.08%.

`Cc1cc(NS(=O)(=O)c2ccc(NC(=S)NC(=O)c3cccc(S(=O)(=O)N(C)C)c3)cc2)no1`: the “hERG current change (%, negative = inhibition) at 10uM” value was determined as 37%.

Regarding `COc1cccc(CSc2nc3ccccc3[nH]2)c1`, the “hERG current change (%, negative = inhibition) at 10uM” value is reported as -16.9%.

Take `CCN(CC)C(=O)Cn1cc(C(=O)C2CC2)c2ccccc21`: the “hERG current change (%, negative = inhibition) at 10uM” value came to 5.42%.

On to `CCOC(=O)Cc1csc(NC(=O)CCN2C(=O)c3cccc([N+](=O)[O-])c3C2=O)n1`, for which the “hERG current change (%, negative = inhibition) at 10uM” value is 4.52%.

In the case of `COc1cc(C(=O)N(C)CCOc2ccc(C)cc2)ccc1OC1CCN(C(C)=O)CC1`, the “hERG current change (%, negative = inhibition) at 10uM” value came to 8.41%.

Regarding `CC(=O)N(CCc1ccccc1)Cc1cc2ccc(C)c(C)c2[nH]c1=O`, the “hERG current change (%, negative = inhibition) at 10uM” value is recorded as -14.9%.

On to `O=C(Cc1nn[nH]n1)Nc1cc(Cl)cc(Cl)c1`, for which the “hERG current change (%, negative = inhibition) at 10uM” value is given as 23.1%.

In the case of `C#CCOCCOCCOCCNc1nc(N2CCN(C(=O)[C@H]([C@@H](C)CC)n3cc(CCC[NH+]=C(N)N)nn3)CC2)nc(N2CCN(C(=O)[C@H](CCCC[NH3+])n3cc(CCC(=O)O)nn3)CC2)n1.[Cl-]`, the “hERG current change (%, negative = inhibition) at 10uM” value is given as 7.93%.

For the compound `CCCC12CN3CCN(CC(C3)/C1=N\NC(=O)c1ccncc1)C2`, the “hERG current change (%, negative = inhibition) at 10uM” value was 4.11%.

Turning to `Cc1cc(=O)oc2cc(OCCSCCN3CCCC3)ccc12`, the “hERG current change (%, negative = inhibition) at 10uM” value is reported as -4.09%.

Regarding `O=C(OCC(=O)N1CCN(C(=O)c2ccco2)CC1)c1cc(=O)c2ccccc2o1`, the “hERG current change (%, negative = inhibition) at 10uM” value is -11.9%.

On to `COCCN(C(=O)COC(=O)C1COc2ccccc2O1)c1c(N)n(Cc2ccccc2)c(=O)[nH]c1=O` (stereo not shown), for which the “hERG current change (%, negative = inhibition) at 10uM” value came to 4.92%.

In the case of `S=C(NCCCN1CCOCC1)Nc1ccc(N2CCOCC2)cc1`, the “hERG current change (%, negative = inhibition) at 10uM” value was 10.9%.

For the compound `Cc1ccc(C)c(S(=O)(=O)N2CCN(C(=O)Cc3ccccc3)CC2)c1`, the “hERG current change (%, negative = inhibition) at 10uM” value is listed as -34.3%.

With `CCn1c(-c2nn(C)c(C)c2Cl)n[nH]c1=S`, the “hERG current change (%, negative = inhibition) at 10uM” value worked out at 18.1%.

For `O=C(O)c1cccc(NC(=O)c2cn(-c3ccccc3)nc2-c2ccc([N+](=O)[O-])cc2)c1`, the “hERG current change (%, negative = inhibition) at 10uM” value came to 19.5%.

Regarding `Cc1c(C(=O)OC(C)C)sc(NC(=O)c2cccnc2)c1C#N`, the “hERG current change (%, negative = inhibition) at 10uM” value was found to be 18.3%.

Take `O=C(Oc1cccc(F)c1)c1ccc2c(=O)n3c(nc2c1)CCC3`: the “hERG current change (%, negative = inhibition) at 10uM” value was -25.9%.

As to `O=S1(=O)C=CC(Nc2ccccc2)C1` (stereo not shown), the “hERG current change (%, negative = inhibition) at 10uM” value is -76%.

Consider `CCOC(=O)c1ccc(COC(=O)c2nonc2N)cc1`, for which the “hERG current change (%, negative = inhibition) at 10uM” value is -2.34%.

Regarding `C/C(CC(=O)Nc1ccc2c(c1)OCCO2)=N\NC(=O)Cc1ccccc1`, the “hERG current change (%, negative = inhibition) at 10uM” value is listed as -9.4%.

Consider `C=CCNc1nc(N2CCCCC2)c(C#N)c2c1CN(Cc1ccccc1)CC2`, for which the “hERG current change (%, negative = inhibition) at 10uM” value came out at 2.45%.

`COC(=O)c1nc2cc3c(cc2c(C)c1C(=O)OC)OCO3`: the “hERG current change (%, negative = inhibition) at 10uM” value turned out to be 10.8%.

As for `O=C/C(=C\Nc1ccccn1)c1nc2cc(Cl)ccc2o1`, the “hERG current change (%, negative = inhibition) at 10uM” value is -6.2%.

For the compound `CC(NC(=O)c1ccc(S(=O)(=O)N(C)C)cc1)c1ccc(-n2ccnc2)cc1` (stereo not shown), the “hERG current change (%, negative = inhibition) at 10uM” value is reported as -74%.

Regarding `CC(=O)C1=C(c2ccccc2)NC(=O)NC1c1ccccc1OCC(=O)NCc1ccccc1` (stereo not shown), the “hERG current change (%, negative = inhibition) at 10uM” value is given as 8.3%.

For the compound `CC1=CC(c2ccc(Cl)cc2)n2nc(NC(=O)CCC(=O)O)nc2N1` (stereo not shown), the “hERG current change (%, negative = inhibition) at 10uM” value came out at 5.5%.

Take `O=C(NCc1cccs1)c1cnn2cccnc12`: the “hERG current change (%, negative = inhibition) at 10uM” value is listed as -13.4%.

Take `CC1(C)CC(=O)C2=C(C1)OC(c1ccc(O)cc1)C(C#N)=C2N` (stereo not shown): the “hERG current change (%, negative = inhibition) at 10uM” value is recorded as 9%.

In the case of `CC1CCN(C(=O)c2ccc(NC(=O)c3ccccc3)cc2)CC1`, the “hERG current change (%, negative = inhibition) at 10uM” value amounted to 4.15%.

In the case of `Cc1ccc2cccc(OC(=O)N3CCCC3)c2n1`, the “hERG current change (%, negative = inhibition) at 10uM” value is listed as -8.73%.

Consider `CC(CCc1ccco1)NC(=O)Cn1ncc2c(=O)oc3ccccc3c21` (stereo not shown), for which the “hERG current change (%, negative = inhibition) at 10uM” value is recorded as -15.8%.

Regarding `Cc1cccc(C(=O)Nc2cccc3cccnc23)c1`, the “hERG current change (%, negative = inhibition) at 10uM” value is on record as 9.73%.

As for `COc1ccccc1C(C)NS(=O)(=O)c1ccc(Cl)nc1` (stereo not shown), the “hERG current change (%, negative = inhibition) at 10uM” value is reported as -5.69%.

Take `COC(=O)C1=C(c2cc3ccccc3s2)C[C@@H]2CC[C@H]1N2C(=O)NC1CC1`: the “hERG current change (%, negative = inhibition) at 10uM” value is -17.8%.

Take `N/C(=N\OC(=O)CCc1ccccc1)c1cccnc1`: the “hERG current change (%, negative = inhibition) at 10uM” value amounted to 16.4%.

`CCOC(=O)CSc1ncc(-c2cccc(Cl)c2)cn1`: the “hERG current change (%, negative = inhibition) at 10uM” value is -17.4%.

For `CCOC(=O)C1CCN(S(=O)(=O)c2c(C)n(C)c(=O)n(C)c2=O)CC1`, the “hERG current change (%, negative = inhibition) at 10uM” value is given as -1.58%.

With `Cc1ccc2nc(NC3=NC(CC(=O)O)C(=O)N3)nc(C)c2c1` (stereo not shown), the “hERG current change (%, negative = inhibition) at 10uM” value amounted to 7.55%.

As for `O=C(NCC(c1cccnc1)N1CCOCC1)c1cccs1` (stereo not shown), the “hERG current change (%, negative = inhibition) at 10uM” value was 10.1%.

Consider `COc1cccc(Oc2nccc(N(C)C)c2C#N)c1`, for which the “hERG current change (%, negative = inhibition) at 10uM” value was 13.5%.

As for `O=[N+]([O-])c1cc2c(cc1/C=N/n1c(-c3ccccn3)n[nH]c1=S)OCO2`, the “hERG current change (%, negative = inhibition) at 10uM” value is 10.9%.

With `Cc1ccc(NC(=O)c2ccco2)c(NC(=O)c2ccccc2)c1`, the “hERG current change (%, negative = inhibition) at 10uM” value was found to be 1.58%.
